According to PubChem BioAssay (Tox21):
Where “and” joins values, the source holds several entries; their conditions need not be identical. Equal values may be shown once. This list was built around the results that the source calls inconclusive (neither active nor inactive); the mix of calls is not that of the screen. A potency beside an inconclusive call is a rough fit, not a confirmed value. Calls of active or inactive are those of the source. Calls follow the shape of the dose curve; as a rule, active = well fitted cell-killing curve with a large enough effect in the repeat runs; inconclusive = weak or mixed curves, or effect the other way; inactive = no such curve, though single readings can be large or run the other way.
% is scaled to controls: 0 for no effect and ±100 for the full control effect; potency is read from the fitted curve at half-maximal effect; tags tell the direction and shape of the fitted curve.

Assay: qHTS assay to identify small molecule agonists of the farnesoid-X-receptor (FXR) signaling pathway - cell viability counter screen (AID 743218); also: nearly all actives have a fitted effect of over 45% in size
Conditions: FXR-bla HEK293T viability, CellTiter-Glo luminescence, 16 h; viability change, negative = cytotoxic: at 62.6 µM (top of the series) unless noted
Procedure, shortened: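 Same-well cytotoxicity check on FXR-UAS-bla HEK 293T cells: 5 h attachment, 16 h compound at 37 C, CellTiter-Glo luminescence read at room temperature after 30 min.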
For `CC(C)(C)CC(C)(C)c1ccccc1O`, the Potency was inconclusive: 55.2 µM [cytotoxic, single point]. For `Cc1ccc2nc(-c3ccc(N)cc3)sc2c1S(=O)(=O)O`, the Potency was inconclusive: 17.1 µM [cytotoxic, partial curve, poor fit]. With `CCCCCC(=O)O[C@]1(C(C)=O)CC[C@H]2[C@@H]3CCC4=CC(=O)CC[C@]4(C)[C@H]3CC[C@@]21C` the Potency was active: 43.4 µM and inconclusive: 33.5 µM [cytotoxic, single point]. In the case of `C=C1C(CCl)(CCl)C2(Cl)C(Cl)C(Cl)C1(Cl)C2(Cl)Cl` (stereo unspecified), the Potency is reported as active: 48.4 µM. In the case of `CCc1cc(Cc2cc(CC)cc(C(C)(C)C)c2O)c(O)c(C(C)(C)C)c1`, the Potency is reported as active: 11 µM. In the case of `O=C(CCCCCCCCc1cccnc1)N1CCC(C=C(c2ccccc2)c2ccccc2)CC1`, the Potency is reported as active: 24.5 µM. In the case of `O=C(Oc1cccc2cccnc12)c1ccccc1`, the Potency is reported as active: 9.44 µM. For `CCCCCCCCCCCCc1ccc(O)cc1`, the Potency was active: 34.7 µM. With `CCCCCCCCCOC(=O)c1ccc(O)cc1` the Potency was active: 48.3 µM. In the case of `Oc1c(Cl)cc(Cl)c2cccnc12`, the Potency is reported as inconclusive: 21.1 µM [cytotoxic, partial curve, poor fit]. In the case of `CC1=C(/C=C/C(C)=C/C=C/C(C)=C\C=O)C(C)(C)CCC1`, the Potency is reported as active: 46.4 µM. For `CC(=O)c1ccc(S(=O)(=O)NC(=O)NC2CCCCC2)cc1`, the Potency was inconclusive: 2.74 µM [rising, partial curve, poor fit]. For `CCCCCCCCCCCCN1CCCC1=O`, the Potency was inconclusive: 61.6 µM [cytotoxic, single point]. In the case of `C=CC(=O)OCC(CO)(COCC(COC(=O)C=C)(COC(=O)C=C)COC(=O)C=C)COC(=O)C=C`, the Potency is reported as active: 4.31 µM. For `CC(C)(C)c1ccc(O)c(O)c1`, the Potency was inconclusive: 54.9 µM [cytotoxic, single point]. With `CN[C@H]1CC[C@@H](c2ccc(Cl)c(Cl)c2)c2ccc(S(N)(=O)=O)cc21` the Potency was active: 13.8 µM. For `C[C@H]1O[C@@H](O[C@H]2CC[C@@]3(C)[C@H](CC[C@@H]4[C@@H]3C[C@@H](O)[C@]3(C)[C@@H](C5=CC(=O)OC5)CC[C@]43O)C2)C[C@H](O)[C@@H]1O[C@H]1C[C@H](O)[C@H](O[C@H]2C[C@H](O)[C@H](O[C@@H]3O[C@H](CO)[C@@H](O)[C@H](O)[C@H]3O)[C@@H](C)O2)[C@@H](C)O1`, the Potency was inconclusive: 0.15 µM [cytotoxic, full curve]. In the case of `CCC(C)(C)c1cc(O)c(C(C)(C)CC)cc1O`, the Potency is reported as inconclusive: 54.9 µM [cytotoxic, single point]. For `COc1cc(-c2nc(NC(=O)c3cc4cc(C)cc(C)c4n3CC(=O)O)sc2CCC2CCCCC2)c(OC)cc1Cl`, the Potency was active: 12.7 µM. With `CCCCC(CC)CN=C(N)NC(N)=NCCCCCCN=C(N)NC(N)=NCC(CC)CCCC` (stereo unspecified) the Potency was active: 13.3 µM. For `Cc1ccc(-c2cc(C(F)(F)F)nn2-c2ccc(S(N)(=O)=O)cc2)cc1`, the Potency was inconclusive: 48.8 µM [cytotoxic]. In the case of `CC1=CC(=O)c2ccccc2C1=O`, the Potency is reported as active: 24.5 µM and inconclusive: 33.5 µM [cytotoxic, single point]. With `CC(CN1c2ccccc2Sc2ccccc21)N(C)C` (stereo unspecified) the Potency was active: 49.5 µM and active: 27.5 µM and inconclusive: 16.8 µM [cytotoxic]. In the case of `CN(C)C(=O)C1(N2CCCCC2)CCN(CC[C@@]2(c3ccc(Cl)c(Cl)c3)CN(C(=O)c3ccccc3)CCO2)CC1`, the Potency is reported as active: 16.2 µM. For `CCCCCCCCCCCCCC[P+](CCCC)(CCCC)CCCC` (tested in a mixture with another compound), the Potency was active: 17.5 µM. With `[Cl][Bi]([Cl])([c]1ccccc1)([c]1ccccc1)[c]1ccccc1` the Potency was active: 5.46 µM. With `C[C@@H](NCCCc1cccc(C(F)(F)F)c1)c1cccc2ccccc12` the Potency was active: 29.8 µM. In the case of `CCCCCCCCCCCCCCCCCC[N+](C)(C)C`, the Potency is reported as active: 24.6 µM. With `CCN(CC)C(=S)SSC(=S)N(CC)CC` the Potency was inconclusive: 54.9 nM [cytotoxic, full curve, poor fit] and active: 91.5 nM and inconclusive: 133 nM [cytotoxic, full curve]. For `CC(O)(c1ccc(Cl)cc1)c1ccc(Cl)cc1`, the “viability change, negative = cytotoxic” value was inactive: -0.299%. In the case of `Cc1cc(F)ccc1-c1cc(N2CC[C@@H](O)[C@H]2CO)ncc1N(C)C(=O)C(C)(C)c1cc(C(F)(F)F)cc(C(F)(F)F)c1`, the Potency is reported as active: 13.6 µM.
